Assay results: PubChem BioAssay AID720542 (National Center for Advancing Translational Sciences (NCATS), 2013)
“And” between values parts separate entries of the source, which are not always exact repeats. Equal entries are not always repeated. Out of some 360,000 compounds screened, about 740 (0.21%) were called active. The inconclusive results got no clear call from the source; some entries with a clear call stand among them for comparison. Calls follow the shape of the dose curve; as a rule, active = well fitted inhibition curve with a large enough effect; inconclusive = small, poorly fitted or top-dose-only effect; inactive = no such curve, though single readings can be large or run the other way. Potencies of inconclusive entries are left out as doubtful fits.

tested on: Plasmodium falciparum AMA1 (3D7) - RON2 peptide interaction; assay: qHTS for Inhibitors of AMA1-RON; Towards Development of Antimalarial Drug Lead: Primary Screen; conditions: AlphaScreen AMA1-biotinylated RON2 peptide binding; activity change, negative = inhibition: at 58.2 µM (top of the series) unless noted; also: nearly all actives have a fitted effect of over 45% in size;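 as to activity change, negative = inhibition: 0% = vehicle wells and -100% = peptide control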
Method in brief: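 AMA1 (3D7) with his tag at 25 nM final met compounds first, then biotinylated RON2 peptide at 25 nM; detection used donor plus acceptor beads, 10 µg/mL apiece, read by AlphaScreen after 30 min at room temperature.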
Potency is read from the fitted curve at half-maximal effect; tags tell the direction and shape of the fitted curve.

Structure (SMILES)	Potency	activity change, negative = inhibition
COc1cccc(CNS(=O)(=O)c2c(C)[nH]c(C)c2C(=O)N2CCCC2)c1	inactive	
O=C1N(Cc2cccnc2)C[C@@H]2C[C@@H](c3ccc4nonc4c3)N3CCC[C@@]123	inactive	
COc1ccc(N(C(=O)C2COc3ccccc3O2)C(C(=O)NC2CCCCC2)c2ccccc2)cc1OC (centres undefined)	inactive	
Nc1cccc2c1C(=O)c1ccc(Cl)cc1C2=O	inconclusive [inhibitor, partial curve]	
O=C(C1CCN(Cc2ccc(Cl)cc2)CC1)N1CCN(C(c2ccccc2)c2ccccc2)CC1	inconclusive [inhibitor, single point]	
NC(=O)C1CCN(C2=C(NS(=O)(=O)c3ccc(Cl)cc3)C(=O)c3ccccc3C2=O)CC1	inconclusive [inhibitor, single point]	
Cc1ccc(CN=c2c([N+](=O)[O-])nn(-c3cccc(C)c3)n2O)cc1	inconclusive [inhibitor, single point]	
CC(C)OC(=O)c1cc2c(ccn2C)n1CC(=O)N(Cc1ccccc1)c1ccccc1	inconclusive [inhibitor, single point]	
C[C@@]12C(=O)Nc3cc(Cl)ccc3C(=O)N1[C@H]1c3cc(Cl)ccc3OC[C@@H]1[C@@H]2c1ccccc1	inactive	
Nc1ccc2nc(CCCCCCc3nc4ccc(N)cc4[nH]3)[nH]c2c1	inconclusive [inhibitor, full curve]	
COC(=O)c1ccccc1NC1=C/C(=N\S(=O)(=O)c2cccs2)c2ccccc2C1=O	active: 1.5 µM and active: 3.16 µM	
O=S(=O)(Nc1ccc(N2CCCCC2)cc1)c1ccc(F)cc1F	inconclusive [inhibitor, partial curve]	
CCOC(=O)N1CCN(S(=O)(=O)c2ccc3c(c2)oc(=O)n3C)CC1	inactive	
CCOC(=O)C1(C)CCCCCN1C(=O)c1ccc(Cl)nc1 (centres undefined)	inactive	
COc1ccc(C2C3=C(CCCC3=O)NC3=C2C(=O)c2ccccc23)cc1 (centres undefined)	inconclusive [inhibitor, partial curve]	
c1ccc2c(C[C@@H]3CNCCN3CC3CCCCC3)cccc2c1	inactive	
CCC(Oc1ccccc1F)C(=O)NCCCn1ccnc1 (centres undefined)	inactive	
O=C(N/N=C/c1ccncc1)c1cc([N+](=O)[O-])cc([N+](=O)[O-])c1O	inconclusive [inhibitor, single point]	
Fc1ccc(C2c3[nH]c4ccccc4c3CCN2Cc2cccn2-c2ncccn2)cc1 (centres undefined)	inactive	
CC1=NCCc2c1[nH]c1ccccc21	inconclusive [inhibitor, partial curve]	
Cc1ccc(N2CCN(S(=O)(=O)N3CCCCC3)CC2)cc1C	inconclusive [inhibitor, partial curve]	
COc1cccc(CN2CCN(C3CCN(c4cccc(C)c4C)CC3)CC2CCO)c1 (centres undefined)	inactive	
CCCCc1c(C)nn(-c2nnc3c4ccccc4n(C)c3n2)c1C	inconclusive [inhibitor, full curve, poor fit]	

Structure (SMILES)	Potency	activity change, negative = inhibition
COC(=O)c1ccc(N=Nc2ccccc2)cc1	inconclusive [inhibitor, partial curve]	
CN1Cc2c(N3CCOCC3)nc3sc(C(=O)c4ccc(Br)cc4)c(N)c3c2CC1(C)C	inconclusive [inhibitor, single point]	
COc1ccc(CCN(C)C(=O)C2CCCN(C3CCN(Cc4ccccc4)CC3)C2)cc1OC (centres undefined)	inconclusive [inhibitor, single point]	
CCOC(=O)C1=C(Cc2ccc(Cl)cc2)C(=O)c2ccccc2C1=O	inconclusive [inhibitor, partial curve]	
O=C(c1cc2c(s1)CCC2)N1CCN(c2ccccc2)CC1	inconclusive [inhibitor, single point]	
O=C(NNc1ccccc1[N+](=O)[O-])Nc1ccc(Cl)c(Cl)c1	inactive	
CCN(CC)c1ccc2nc3ccc(N)cc3[n+](-c3ccccc3)c2c1	active: 20 µM	
Cc1cc(NC(=O)c2cnn3cccnc23)no1	inconclusive [inhibitor, full curve, poor fit]	
CCc1ccc(CN2C(=O)c3ccccc3C2C(=O)NC(C)CC)cc1 (centres undefined)	inactive	
c1ccc(CSc2ccc(-c3ccccn3)nn2)cc1	inconclusive [inhibitor, partial curve]	
Nc1ccc2c3c(ccc([N+](=O)[O-])c13)CC2	active: 28.2 µM	
Cc1ccccc1CN1CCN(c2ccc(Cl)cc2)CC1	inconclusive [inhibitor, partial curve]	
CCOC(=O)c1[nH]c(C)c(C(=O)N2CCN(c3ccc(OC)cc3)CC2)c1C	inconclusive [inhibitor, partial curve]	
COc1ccc(/C=N/N2CCN(Cc3ccccc3)CC2)cc1		inconclusive: -14.3% [inhibitor]
CC1NC(=O)NC1CCCCCC(=O)Nc1ccc(F)cc1 (centres undefined)	inconclusive [inhibitor, partial curve, poor fit]	
C=CCc1ccccc1OCC(O)CN1CCN(c2ccc(OC)cc2)CC1 (centres undefined)	inconclusive [inhibitor, single point]	
CC1=CC(C)(C)Nc2ccc(OC(=O)CN3C(=O)c4ccccc4C3=O)cc21	inconclusive [inhibitor, single point]	
CC1(C)CC(=O)C2=C(C1)NC(=O)CC2	inactive	
O=[N+]([O-])c1ccc(CN2CCSCC2)cc1	inconclusive [inhibitor, partial curve, poor fit]	
COc1ccc(CNC(=O)[C@H](Cc2c[nH]c3ccccc23)NC(=O)[C@@H]2Cc3ccccc3CN2)cc1	inactive	
COc1ccc(Nc2ccc(S(=O)(=O)N3CCCCC3)cc2[N+](=O)[O-])cc1	inconclusive [inhibitor, full curve, poor fit]	
CCOC(=O)c1c(Cl)c(C)nn1-c1nc(OC)cc(OC)n1	inconclusive [inhibitor, partial curve]	
COc1cccc(CN2CCN(c3ncccn3)CC2)c1OC	inconclusive [inhibitor, single point]	

Structure (SMILES)	Potency	activity change, negative = inhibition
O=C(c1cccnc1)N1CCN(Cc2ccccc2Br)CC1	inconclusive [inhibitor, partial curve]	
CCOC(=O)c1cc2c(ccn2C)n1CC(=O)N(Cc1ccccc1)c1ccccc1	inconclusive [inhibitor, single point]	
C#CCn1cc(/C=C2\NC(=O)NC2=O)c2ccccc21	inconclusive [inhibitor, single point]	
COc1ccc2c(c1)CC/C(=C\c1ccc(OC)c(Cn3nc(C)cc3C)c1)C2=O	inconclusive [inhibitor, single point]	
CCN(CC)c1ccc(/C=N/NC(=O)c2ccco2)c(O)c1	inactive	
C[C@H](CO)N1C[C@H](C)[C@@H](CN(C)C(=O)Nc2ccc(C(F)(F)F)cc2)Oc2ccc(NC(=O)CCC(F)(F)F)cc2C1=O	inactive	
COc1ccc(O)c(/C=N/Nc2nc3ccccc3[nH]2)c1	inconclusive [inhibitor, single point]	
COc1ccccc1NC(CC(=O)c1ccccc1)C(=O)OCC(=O)c1ccc(C)c(C)c1 (centres undefined)	inconclusive [inhibitor, full curve]	
Nn1c(SCc2ccc(Br)cc2)nnc1-c1ccccn1	inactive	
CC1CC2(CC(CN(C3CCCCC3)C3CCCCC3)OC2=O)C(=O)O1 (centres undefined)	inactive	
O=C1CCc2cc(S(=O)(=O)N3CCC(C(=O)NC4CCCC4)CC3)ccc2N1	inconclusive [inhibitor, single point]	
CN(C)c1ccc(C(=O)NC2CCCc3ccccc32)cc1 (centres undefined)	inconclusive [inhibitor, partial curve]	
O=C(O/N=C1\CCS(=O)(=O)c2sccc21)c1c(F)cccc1F	inconclusive [inhibitor, single point]	
CN1CCN(c2cc(N3CCc4ccccc4C3)c(F)cc2[N+](=O)[O-])CC1	inconclusive [inhibitor, partial curve, poor fit]	
C[C@@H]1CN([C@H](C)CO)S(=O)(=O)c2ccc(Br)cc2O[C@@H]1CN(C)Cc1ccc(-c2ccccc2)cc1	inconclusive [inhibitor, partial curve]	
Clc1ccc(-c2csc(Nc3ccccc3)[n+]2Cc2ccco2)c(Cl)c1	inconclusive [inhibitor, single point]	
CCOc1ccc2nc(NC(=O)CSc3nc(SC)ns3)sc2c1	inactive	
CN(CC(=O)Nc1ccc(OC(F)(F)F)cc1)C(=O)/C=C/c1cc2c(cc1[N+](=O)[O-])OCO2	inactive	
Cc1ccccc1NS(=O)(=O)c1cccc2nsnc12	inactive	
CC(Oc1cccc(Cl)c1)C(=O)Nc1ccc(N2CCOCC2)cc1N1CCOCC1 (centres undefined)	inconclusive [inhibitor, single point]	
COc1cc(N2CCCC2)c(OC)cc1/C=C(/C#N)c1cccc(F)c1	inconclusive [inhibitor, partial curve]	
COc1ccc2c(c1)CCc1cc(C(=O)N3CCN(c4ccc(N5CCOCC5)nn4)CC3)sc1-2	inconclusive [inhibitor, partial curve]	
Cc1ccc(C(=O)NNC2CC(=O)N(c3ccc4c(c3)OCCO4)C2=O)cc1 (centres undefined)	inconclusive [inhibitor, partial curve, poor fit]	
